# According to the RNAGym collection of RNA variant scans (doi:10.1073/pnas.2313332121):
# Variants at the background level are over-represented here.
# B1: TPR 5TU (parent)
# chain: GGAUCUUCUCGAUCUAACAAAAAAGACAAAUCUGCCACAAAGCUUGAGAGCAUCUUCGGAUGCAGAGGCGGCAGCCUUCGGUGGCGCGAUAGCGCCAACGUUCUCAACUAUGACACGCAAAACGCGUGCUCCGUUGAAUGGAGUUUAUCAUG
# Variants of: B1
# Test: polymerase ribozyme fitness, log enrichment relative to wild type (log ratio); higher = more active; in vitro selection for triplet polymerase activity
# How it was run: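 Mutant libraries of each subunit of a heterodimeric triplet polymerase ribozyme were built by PCR and transcribed. Each library went through one round of in vitro selection in triplicate: annealing with biotinylated primer, partner subunit and triplets, frozen incubation at −7 °C, gel excision of extended constructs, streptavidin-bead capture and RT-PCR. Input and output libraries were Illumina-sequenced; only genotypes with ≥10 input reads and ≥1 read per output were kept. Fitness is log2(genotype enrichment/wild-type enrichment), using inverse-variance-weighted replicate averages.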
row,Variant,polymerase ribozyme fitness (log ratio)
1,GGAUCUUCUCGAUCUAACAAAAAAGACAAAUCUGCCACAAAGAUGGAGAGCAUCUUCGGAUGCAGAGGCGGCAGCCUUCGGUGGCGCGAAAGCGCCAACGUGCUCAACUAUGACACGCAAAACGCGUGCUCCGUUGAAUAGAGUUUCUCAUG [C43A U45G U90A U102G G140A A147C],≤ -4.2
2,GGAUCUUCUCGAUCUAACAAAAAAGACAAAUCUGCCACAAAGGUUGAGAGCAUCUUCGCAUGCAGAGGCGGCAGCCUUCGGUGGCGCGAUAGCGCCAACGUUCCCAACUAUGACACGCAAAACGCGUGCUCCGCUGACUGGAGUUUAUCAUG [C43G G59C U104C U134C A138C],≤ -4.2
3,GGAUCUUCUCGAUCUAACAAAAAAGACAAAUCUGCCACAAAGGUUGAGAGCAUCUUCGGAUGCAGAGGCGGCAGCCUUCGGUGGCACGAUAGCGCCAACGUUCUCAACUAUGACACGCAAAACGCGUGCUCCGUUGAAUGGAGUUUAUCAUG [C43G G86A],≤ -4.2
4,GGAUCUUCUCGAUCUAACAAAAAAGACAAAUCUGCCACAAAGGUUGAGAGCAUCUUCGGAUGCAGAGGCGGCAGCCUUCGGUAGCGCGAUAGCGCCAACGUUCUCAACUAUGACACGCAAAACGCGUGCUCCGUUGACUGGAGUUUAUCAUG [C43G G83A A138C],≤ -4.2
5,GGAUCUUCUCGAUCUAACAAAAAAGACAAAUCUGCCACAAAGGUUGAGAGCAUCUUCGGAUGCAGAUGCGGCAGCCUUCGGUUGCGCGAUAGGGCCAACGUUUUCAACUAUGACAAGCAAAACGCGUGCUCCGUUGAAUGGAGUUUAUCAUG [C43G G67U G83U C93G C103U C116A],≤ -4.2
6,GGAUCUUCUCGAUCUAACAAAAAAGACAAAUCUGCCACAAAGAUUGAGAGCAUCUUCGGAAGCAGAGGCGGCAGCCUUCGGUGGCGCGAUAGCGCCAACGUUCUCAACUAUGACACGCAAAACGCGCGCUCUGUUGAAUGGAGUGUAUCAUG [C43A U61A U127C C132U U145G],≤ -4.2
7,GGAUCUUCUCGAUCUAACAAAAAAGACAAAUCUGCCACAAAGAUUGAGAGCAGCUUCGGAUGCAGAGGCGGCAGCCUUCGGUGGCGGGAUAGCGCCAACGUCCUCAACUAUGAGACGCAAAACGCGUGCUCCGUUGAAUGGAGUUUAUCAUG [C43A U53G C87G U102C C114G],≤ -4.2
8,GGAUCUUCUCGAUCUAACAAAAAAGACAAAUCUGCCACAAAGGUUGAGCGCAUCUUCGGAUGCAGAGGCGGCAGCAUUCGGUGACGCGAUAGCGCCAACGUUCUGAACUAUGACACGCAAAACGCGUGCUCCGUUGAAUGGAGUUUAUCAUG [C43G A49C C76A G84A C105G],≤ -4.2
9,GGAUCUUCUCGAUCUAACAAAAAAGACAAAUCUGCCACAAAGGUUGAGAGCAUCUUCGGAUGCAGAGGCGGCAGCCUUCGGUGGCGCGAUAGCGCCAACGUUCUCAAAUAUGACACGCAAAACGCGUGCUCCGUUGAAUGGAGUUUAUCAUG [C43G C108A],≤ -4.2
10,GGAUCUUCUCGAUCUAACAAAAAAGACAAAUCUGCCACAAAGGUUGAGAGCAUCUUCGGAUGCAGAGGCGGCGGACUUCAGUGGCGCGAUAGCGCCAACGUUCUUAACUAUGACACGCAAAACGCGUGCUCCGUUGAAUGGACUUUAUCAUG [C43G A73G C75A G80A C105U G143C],≤ -4.2
11,GGAUCUUCUCGAUCUAACAAAAAAGACAAAUCUGCCACAAAGGUUGAGGGCAUCUUCGGAUGCAGAGUCGGCAGCCUUCGGUGGCCCGAUAGCGCCAACGUUCUUAACUAUGACAUGCAAAACGCGUGCUCCGUUGAAUGGAGUUUAUCAUG [C43G A49G G68U G86C C105U C116U],≤ -4.2
12,GGAUCUUCUCGAUCUAACAAAAAAGACAAAUCUGCCACAAAGGUUGAGAUCAUCUUUGGAUGCAGAGGCGGCAGCCUUCGGUGGCGCGAUAGCGCCAACGUUCUCAACUAUGACACGCAAAACGCGUGCUCCGUUGAAUUGAGUUAAUCAUG [C43G G50U C57U G140U U146A],≤ -4.2
13,GGAUCUUCUCGAUCUAACAAAAAAGACAAAUCUGCCACAAAGAUUGAGAGCAUCGUCGGAUGCAGAGGCGGCAGCCUUCGGUGUCGCAAUAGCGCCGACGUUCUCAACUAUGACACGCAAAACGCGUGCUCCGAUGAAUGGAGUUUAUUAUG [C43A U55G G84U G88A A97G U134A C149U],≤ -4.2
14,GGAUCUUCUCGAUCUAACAAAAAAGACAAAUCUGCCACAAAGGUUGAGAGCAUCUUCGGAUGCAGAGGCGGCAGCCUUCGGUCGCGCGAUAGCGCCAACGUUCUCAUCUAUGACACGCAAAACGCGUGCUCCGUUGAAUGGAGUUUAUCAUG [C43G G83C A107U],≤ -4.2
15,GGAUCUUCUCGAUCUAACAAAAAAGACAAAUCUGCCACAAAGGUUGAGAGCAUCUUCGGAUGCAGAGGCGGCAGCCUUCGGUCGCGCGAUAGCGCCAACGUUCUCAACUAUGACACGCAAAACGCGUGCUCCGUUGAAUGGAGUUUAUCAUG [C43G G83C],≤ -4.2
16,GGAUCUUCUCGAUCUAACAAAAAAGACAAAUCUGCCACAAAGAUUGAGAGCAUCUUCGGAUGCAGAGGCGGCAGCCUUCGGUGGCGCGAUAGCGCCAACGUUCUCAACUAUGACACGCAAAACGCGAGCUCCGUUGAAUGGGGUUUAUCAUG [C43A U127A A142G],≤ -4.2
17,GGAUCUUCUCGAUCUAACAAAAAAGACAAAUCUGCCACAAAGAUUGAGAGCAUCUUCGGAUGCAGAGGCGGCAGCCUUCGGUGGCGCGAAAGCGCCAACGUUCUCAACUAUGACACGCAAAACGCGUGCUGCGUUGAAUUGAGUUUAUCAUG [C43A U90A C131G G140U],≤ -4.2
18,GGAUCUUCUCGAUCUAACAAAAAAGACAAAUCUGCCACAAAGGUUUAGAGCAUCUUCGGAUGCAGAGGCGGCAGCCUUCUGUGGCGCGAUAGCGCCAACGUUUUCAACUAUGACACGCAAGACGCGUGCUCCGUUGAAUGGAGUUUAUCAUG [C43G G46U G80U C103U A121G],≤ -4.2
19,GGAUCUUCUCGAUCUAACAAAAAAGACAAAUCUGCCACAAAGGUUGAGAGCAUCUUCGGAUGCAGAGGCGGCAGCCUUCGGUGGGGCGAUAGCGCCAACGUUCUCAACUAUGACACGCAAAACGCGUGCUCCGUUGAAUGGAGUUUAUCAUG [C43G C85G],≤ -4.2
